# Measured values taken from article PMC10080908.
# These are yes or no findings as the source states them, for the method shown. In cells and extracts the contact can be indirect. Some results given as binding are weak or reduced against the parent protein; the word gives no strength. Tags and fused reporters may be left off the sequences shown.
# T1: GST-UBXN7-UAS (human) (UniProt O94888)
# T1 sequence: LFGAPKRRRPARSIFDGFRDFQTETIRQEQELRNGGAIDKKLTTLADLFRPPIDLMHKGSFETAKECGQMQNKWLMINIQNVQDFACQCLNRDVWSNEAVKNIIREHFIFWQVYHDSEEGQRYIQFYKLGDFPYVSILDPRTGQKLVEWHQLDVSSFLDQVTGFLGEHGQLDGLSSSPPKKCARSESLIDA
# T2: GST-UBXN7-WT (human) (UniProt O94888)
# T2 sequence: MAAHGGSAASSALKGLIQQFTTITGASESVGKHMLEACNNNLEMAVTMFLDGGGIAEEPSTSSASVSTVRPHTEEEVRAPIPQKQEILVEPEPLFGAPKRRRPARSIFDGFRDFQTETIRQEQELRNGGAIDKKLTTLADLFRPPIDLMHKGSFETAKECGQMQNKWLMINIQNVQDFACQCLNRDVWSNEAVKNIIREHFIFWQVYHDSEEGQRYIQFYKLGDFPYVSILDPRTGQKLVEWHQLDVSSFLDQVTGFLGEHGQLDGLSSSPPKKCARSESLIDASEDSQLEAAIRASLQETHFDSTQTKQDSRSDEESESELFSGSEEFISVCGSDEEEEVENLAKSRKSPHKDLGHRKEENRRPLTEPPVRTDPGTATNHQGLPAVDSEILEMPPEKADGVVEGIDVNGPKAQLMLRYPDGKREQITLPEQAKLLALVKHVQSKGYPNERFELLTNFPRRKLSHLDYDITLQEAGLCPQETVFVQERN
# T3: Flag-PIRH2 (human) (UniProt Q96PM5)
# T3 sequence: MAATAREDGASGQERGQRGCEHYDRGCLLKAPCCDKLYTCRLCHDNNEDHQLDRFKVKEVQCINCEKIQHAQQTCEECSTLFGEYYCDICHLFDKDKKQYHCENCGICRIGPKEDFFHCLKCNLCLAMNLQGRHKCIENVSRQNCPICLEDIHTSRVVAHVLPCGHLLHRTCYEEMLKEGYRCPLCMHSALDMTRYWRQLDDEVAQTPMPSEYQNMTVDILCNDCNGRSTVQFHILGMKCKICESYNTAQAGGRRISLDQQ
# What was measured:
# GST-UBXN7-UAS (human) = target: T1, GST-UBXN7-UAS (human); experiment: pull-down; 5 µg GST-UBXN7 constructs on Glutathione Sepharose, 1 h with HEK-293 cellular extracts (untransfected or transfected) in IP150 buffer; western blot; only the target purified
# GST-UBXN7-WT (human) = target: T2, GST-UBXN7-WT (human); experiment: as above
# Flag-PIRH2 (human) = target: T3, Flag-PIRH2 (human); experiment: co-IP; Flag antibody and Protein G Sepharose, HEK-293 lysates in IP150 buffer, overnight at 4 °C; western blot with anti-Flag and anti-HA
binder,measurement,setting,value
"TOPORS (protein, UniProt Q9NS56 1-1045) MGSQPPLGSPLSREEGEAPPPAPASEGRRRSRRVRLRGSCRHRPSFLGCRELAASAPARPAPASSEIMASAAKEFKMDNFSPKAGTSKLQQTVPADASPDSKCPICLDRFDNVSYLDRCLHKFCFRCVQEWSKNKAECPLCKQPFDSIFHSVRAEDDFKEYVLRPSYNGSFVTPDRRFRYRTTLTRERNASVYSPSGPVNRRTTTPPDSGVLFEGLGISTRPRDVEIPQFMRQIAVRRPTTADERSLRKIQEQDIINFRRTLYRAGARVRNIEDGGRYRDISAEFFRRNPACLHRLVPWLKRELTVLFGAHGSLVNIVQHIIMSNVTRYDLESQAFVSDLRPFLLNRTEHFIHEFISFARSPFNMAAFDQHANYDCPAPSYEEGSHSDSSVITISPDEAETQELDINVATVSQAPWDDETPGPSYSSSEQVHVTMSSLLNTSDSSDEELVTGGATSQIQGVQTNDDLNNDSDDSSDNCVIVGFVKPLAERTPELVELSSDSEDLGSYEKMETVKTQEQEQSYSSGDSDVSRCSSPHSVLGKDEQINKGHCDSSTRIKSKKEEKRSTSLSSPRNLNSSVRGDRVYSPYNHRHRKRGRSRSSDSRSQSRSGHDQKNHRKHHGKKRMKSKRSRSRESSRPRGRRDKKRSRTRDSSWSRRSQTLSLSSESTSRSRSRSSDHGKRRSRSRNRDRYYLRNNYGSRYKWEYTYYSRNKDRDGYESSYRRRTLSRAHYSRQSSSPEFRVQSFSERTNARKKNNHSERKYYYYERHRSRSLSSNRSRTASTGTDRVRNEKPGGKRKYKTRHLEGTNEVAQPSREFASKAKDSHYQKSSSKLDGNYKNESDTFSDSRSSDRETKHKRRKRKTRSLSVEIVYEGKATDTTKHHKKKKKKHKKKHKKHHGDNASRSPVVITIDSDSDKDSEVKEDTECDNSGPQDPLQNEFLAPSLEPFETKDVVTIEAEFGVLDKECDIATLSNNLNNANKTVDNIPPLAASVEQTLDVREESTFVSDLENQPSNIVSLQTEPSRQLPSPRTSLMSVCLGRDCDMS",binding,GST-UBXN7-UAS (human),binds
same,binding,GST-UBXN7-WT (human),binds
"Flag-TOPORS-Nter (domain or fragment, UniProt Q9NS56 1-247) MGSQPPLGSPLSREEGEAPPPAPASEGRRRSRRVRLRGSCRHRPSFLGCRELAASAPARPAPASSEIMASAAKEFKMDNFSPKAGTSKLQQTVPADASPDSKCPICLDRFDNVSYLDRCLHKFCFRCVQEWSKNKAECPLCKQPFDSIFHSVRAEDDFKEYVLRPSYNGSFVTPDRRFRYRTTLTRERNASVYSPSGPVNRRTTTPPDSGVLFEGLGISTRPRDVEIPQFMRQIAVRRPTTADERSL",binding,GST-UBXN7-UAS (human),binds
same,binding,GST-UBXN7-WT (human),binds
"Flag-TOPORS-Nter-CA (domain or fragment, UniProt Q9NS56 1-247) MGSQPPLGSPLSREEGEAPPPAPASEGRRRSRRVRLRGSCRHRPSFLGCRELAASAPARPAPASSEIMASAAKEFKMDNFSPKAGTSKLQQTVPADASPDSKAPICLDRFDNVSYLDRCLHKFCFRCVQEWSKNKAECPLCKQPFDSIFHSVRAEDDFKEYVLRPSYNGSFVTPDRRFRYRTTLTRERNASVYSPSGPVNRRTTTPPDSGVLFEGLGISTRPRDVEIPQFMRQIAVRRPTTADERSL",binding,GST-UBXN7-WT (human),no binding
"HA-UBXN7-WT (protein, UniProt O94888 1-489) MAAHGGSAASSALKGLIQQFTTITGASESVGKHMLEACNNNLEMAVTMFLDGGGIAEEPSTSSASVSTVRPHTEEEVRAPIPQKQEILVEPEPLFGAPKRRRPARSIFDGFRDFQTETIRQEQELRNGGAIDKKLTTLADLFRPPIDLMHKGSFETAKECGQMQNKWLMINIQNVQDFACQCLNRDVWSNEAVKNIIREHFIFWQVYHDSEEGQRYIQFYKLGDFPYVSILDPRTGQKLVEWHQLDVSSFLDQVTGFLGEHGQLDGLSSSPPKKCARSESLIDASEDSQLEAAIRASLQETHFDSTQTKQDSRSDEESESELFSGSEEFISVCGSDEEEEVENLAKSRKSPHKDLGHRKEENRRPLTEPPVRTDPGTATNHQGLPAVDSEILEMPPEKADGVVEGIDVNGPKAQLMLRYPDGKREQITLPEQAKLLALVKHVQSKGYPNERFELLTNFPRRKLSHLDYDITLQEAGLCPQETVFVQERN",binding,Flag-PIRH2 (human),no binding
